Several values for one entry are separate records, joined by “and”; a condition that tells them apart may be missing. Equal entries are not always repeated.
Tests used:
[1] = biological target: T1, recombinant human IL-13 (CHO; Applicants' own material) (human, UniProt P35225 fragment, limits assumed); experiment: cell-based or functional assay
[2] = biological target: recombinant human IL-13 (E. coli; Preprotech) (human, UniProt P35225 fragment); experiment: cell-based or functional assay
[3] = biological target: T1, recombinant human IL-13 (CHO; …); experiment: Kd inferred from the IC50 of the TF1 cell proliferation bioassay with 15 pM IL-13; not a direct binding assay

B1: IL-4/IL-13 Trap 1132 (Fc fusion)
chain: [not shown - about 200 residues]APTETQPPVTNLSVSVENLATVIWTWNPPEGASSNCSLWYFSHFGDKQDKKIAPETRRSIEVPLNERICLQVGSQCSTNESEKPSILVEKCISPPEGDPESAVTELQCIWHNLSYMKCSWLPGRNTSPDTNYTLYYWHRSLEKIHQCENIFREGQYFGCSFDLTKVKDSSFEQHSVQIMVKDNAGKIKPSFNIVPLTSRVKPDPPHIKNLSFHNDDLYVQWENPQNFISRCLFYEVEVNNSQTETHNVFYVQEAKCENPEFERNVENTSCFMVPGVLPDTLNTVRIRVKTNKLCYEDDKLWSNWSQEMSIGKKRNST
- IC50, TF1 cell proliferation with 15 pM IL-13 (MTS, OD 490 nM) [1]: 16 pM and 17 pM
- IC50, TF1 cell proliferation with 15 pM IL-13 (MTS, OD 490 nM) [2]: 64 pM
- Kd [3]: ~9 pM
